Test results taken from PMC4336329 (PLoS ONE, 2015).
The whole screen tested about 310,000 compounds, of which about 2,200 (0.71%) showed an effect of 50% or more. Effects have a minus sign here. This is one part of the list.

biological target: human ether-à-go-go-related gene (hERG) potassium channel (human, UniProt Q12809); experiment: primary screen, population patch clamp on CHO cells stably expressing hERG
Sequence (Q12809 whole entry, looked up): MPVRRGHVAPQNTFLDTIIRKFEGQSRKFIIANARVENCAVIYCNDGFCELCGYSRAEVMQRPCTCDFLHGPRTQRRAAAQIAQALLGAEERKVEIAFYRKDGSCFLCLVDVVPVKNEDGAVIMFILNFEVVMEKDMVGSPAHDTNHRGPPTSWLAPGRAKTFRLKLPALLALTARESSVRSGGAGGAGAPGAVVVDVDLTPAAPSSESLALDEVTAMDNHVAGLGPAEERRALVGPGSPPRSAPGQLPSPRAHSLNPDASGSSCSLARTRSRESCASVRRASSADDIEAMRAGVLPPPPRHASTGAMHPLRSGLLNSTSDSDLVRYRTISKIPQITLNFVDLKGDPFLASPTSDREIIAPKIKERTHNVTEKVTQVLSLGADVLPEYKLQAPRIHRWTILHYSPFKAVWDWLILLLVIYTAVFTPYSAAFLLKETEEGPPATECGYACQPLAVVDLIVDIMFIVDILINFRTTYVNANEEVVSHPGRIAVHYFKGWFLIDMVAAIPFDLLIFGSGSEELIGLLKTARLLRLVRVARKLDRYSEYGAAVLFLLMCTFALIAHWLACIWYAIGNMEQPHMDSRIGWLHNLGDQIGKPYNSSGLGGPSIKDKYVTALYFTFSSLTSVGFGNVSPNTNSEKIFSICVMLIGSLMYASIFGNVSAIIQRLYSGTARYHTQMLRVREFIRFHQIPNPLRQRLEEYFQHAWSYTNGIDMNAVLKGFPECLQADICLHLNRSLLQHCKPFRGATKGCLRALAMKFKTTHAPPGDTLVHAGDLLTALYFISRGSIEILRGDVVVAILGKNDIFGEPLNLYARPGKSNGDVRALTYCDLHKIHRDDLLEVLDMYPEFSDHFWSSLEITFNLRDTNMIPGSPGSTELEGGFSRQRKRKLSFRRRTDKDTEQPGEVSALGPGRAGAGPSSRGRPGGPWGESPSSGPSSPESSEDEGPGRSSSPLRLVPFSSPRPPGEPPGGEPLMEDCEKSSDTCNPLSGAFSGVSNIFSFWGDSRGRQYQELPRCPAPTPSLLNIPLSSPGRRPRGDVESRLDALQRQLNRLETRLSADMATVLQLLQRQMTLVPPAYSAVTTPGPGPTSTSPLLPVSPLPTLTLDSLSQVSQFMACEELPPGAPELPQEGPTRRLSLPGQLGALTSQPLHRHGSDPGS

Structure (SMILES)	hERG current change (%, negative = inhibition) at 1uM
CCc1cccc(C)c1N(C(=O)Cn1c(CO)nc2ccccc21)C(C)COC (stereo not shown)	10.7%
CCOc1ccc(C2C(C(=O)c3ccco3)=C(O)C(=O)N2CCN2CCOCC2)cc1OCC (stereo not shown)	15.3%
O=c1[nH]c2ccccc2nc1Cc1ccc(Cl)cc1	14.6%
Cc1c(Cl)cccc1NC(=O)CSc1nc2c(c(=O)[nH]1)CCCC2	12.7%
CCCc1ccc(-c2ccc(-c3noc(-c4ccncc4)n3)cc2)nc1	9.72%
COc1ccc(/C=N/NC2=NCCCCC2)c(OC)c1.Cl	9.91%
Cc1ccc(S(=O)(=O)N(C)CC(=O)Nc2ccc(C)cn2)cc1	13%
COc1ccc(N=Nc2[nH]c3ccc(C)cc3c2O)cc1	13.5%
CCOC(=O)c1cc(COc2cc(Cl)cc(Cl)c2)on1	13.2%
CCC1=NN(C(=O)Cc2ccc(OC)cc2)C(O)(C(F)(F)F)C1 (stereo not shown)	2.59%
O=S(=O)(Nc1ccccc1Cl)c1cccc2nsnc12	4.1%
CSc1nc2cc3c(cc2n1C(=O)c1ccc(C)cc1)OCCO3	12.8%
COc1ccc(CCN(Cc2cccs2)S(=O)(=O)c2ccc(S(=O)(=O)N3CCC(C)CC3)cc2)cc1OC	14.3%
COCCNC(=O)[C@H](C)[C@H]1C[C@]1(C)[C@H](NC(=O)OCc1ccccc1)c1ccccc1	8.88%
CCN(CC)S(=O)(=O)c1ccc(N=Cc2c(C)c(C#N)c(=O)n(C)c2O)cc1	2.14%
Cc1cc(NC(=O)CCC(=O)N(CC(=O)NC2CCCC2)c2ccccc2)no1	12.3%
O=C(NNc1ccccc1)C(=O)N1CCCCC1	8.08%
CCCNC(=O)c1ccc(C2SCC(=O)N2Cc2ccccc2)cc1 (stereo not shown)	8.86%
CCOc1ccc(C2NC(=O)c3n[nH]c(C)c32)cc1 (stereo not shown)	9.09%
C=CCSc1nc(N)c(C(=O)Nc2ccccc2C)cc1C(N)=O	13.6%
Nc1nonc1C(=O)N/N=C\c1cc2c(cc1Cl)OCO2	13.6%
O=C(Nc1cccnc1)c1cc(-c2ccc(Cl)c(Cl)c2)on1	17%
COc1cccc(-n2ccnc2SCC(=O)Nc2cc(OC)ccc2OC)c1	10.4%

Structure (SMILES)	hERG current change (%, negative = inhibition) at 1uM
COc1ccc(S(=O)(=O)NCCSCc2ccco2)cc1	12%
Cc1cccc(N2C(=O)CC(Cn3nc(C)cc3C)C2=O)c1 (stereo not shown)	8.98%
O=S(=O)(CS(=O)(=O)c1ccc(Cl)cc1)c1ccc(Cl)cc1	15.2%
CC(C)CNC(=O)C(=O)Nc1ccc2c(c1)N(S(=O)(=O)c1cccs1)CCC2	12%
CCN(CC(=O)Nc1ccc2c(c1)OCCO2)C(=O)CSCC(=O)Nc1ccc(C)cc1	2.62%
CCOc1ccccc1C1C(C#N)=C(SCC(=O)OC)NC(=O)C1C(=O)OC (stereo not shown)	-11.2%
Cc1ccc(C(C[N+](=O)[O-])c2c(C)cc3ccccn23)cc1 (stereo not shown)	8.57%
CCN(CC)C(=O)c1sc2nc(-c3ccncc3)[nH]c(=O)c2c1C	13.9%
O=C(N/N=C\c1c(O)ccc2ccccc12)c1ccc(S(=O)(=O)N2CCCCC2)cc1	4.84%
COc1ccc(N2CCN(Cc3cc4c(cc3Br)OCCO4)CC2)cc1	14.8%
CCCc1cc(=O)oc2c3c(c4c(c12)OC(C)(C)C=C4)OC(C)C(C)C3O (stereo not shown)	12.8%
S=C(NCc1cccs1)Nc1cccc(Cl)c1	0.718%
Cc1ccc(NC(=O)c2ccc(Cl)c(S(=O)(=O)N3CCCCC3)c2)nc1	-4.65%
COc1ccc(C(CNC(=O)Nc2cccc(C)c2)N2CCN(C)CC2)cc1 (stereo not shown)	-17.3%
CCN1CC=C2C(C1)C(c1ccc(Cl)s1)C(C#N)=C(N)C2(C#N)C#N (stereo not shown)	-9.24%
O=C(COc1ccccc1)Nc1nonc1NC(=O)COc1ccccc1	1.64%
CSc1ccc(C(=O)C2CCCN(Cc3cnc(SC)nc3)C2)cc1 (stereo not shown)	-33.7%
COc1cc(CNCCSc2nnnn2C)cc(Br)c1OCc1ccccc1.Cl	-17.1%
Cc1ccc(NC(=S)N(CCN2CCOCC2)Cc2ccccc2F)cc1Cl	12.3%
CC(C)(C)c1ccc(C(=O)NNC(=O)C(=O)N2CCCCC2)cc1	10.3%
COc1ccc(CCNC(=O)c2nnn(CC(=O)Nc3ccccc3C)c2N)cc1OC	17.1%
COC(=O)C(C)NC(=O)c1cn(-c2ccccc2OC)c(=O)c2ccccc12 (stereo not shown)	21%
COc1ccc(C)cc1NC(=O)C1CCN(S(=O)(=O)c2ccccc2)CC1	9.5%

Structure (SMILES)	hERG current change (%, negative = inhibition) at 1uM
O=C(NC(NC(=S)Nc1c(Cl)cccc1Cl)C(Cl)(Cl)Cl)OCc1ccccc1 (stereo not shown)	16.8%
COc1ccc(NC(=O)Cn2nc(C)c([N+](=O)[O-])c2C)cn1	12.3%
COC(=O)NC(NC(=S)Nc1ccc([N+](=O)[O-])cc1)C(Cl)(Cl)Cl (stereo not shown)	10.3%
Cc1cc(C)n(-c2nc(NCCN(C)C)c3c4c(sc3n2)CCCC4)n1	4.17%
COc1ccc(CN2CCNC(=O)C2CC(=O)NCCN2CCCCC2=O)c(F)c1 (stereo not shown)	15.7%
Cc1ccc(S(=O)(=O)/N=C(\c2ccc(Cl)cc2)N2CCOCC2)cc1	-2.85%
CCCn1c(=O)c(C(=O)Nc2ccccc2)c(O)c2ccccc21	4.76%
COc1ccc(Cl)cc1NC(=O)COC(=O)C1CCCCC1	9.75%
Cc1nc2ccccc2n1CCOc1ccc(F)cc1	0.306%
COc1cc(/C=C/C(=O)OCC(=O)NCCc2ccccc2)ccc1OC(F)F	13.8%
CCN1CC(CN(C)Cc2nc(-c3cccs3)no2)CC1=O (stereo not shown)	12.6%
CCc1ccc(NC(=S)NC2CCN(Cc3ccccc3)CC2)cc1	-6.54%
Cn1c(SCc2ccc(Br)cc2)nnc1-c1ccccn1	8.1%
Nc1ncnc(N2CCOCC2)c1N	2.39%
CCOC(=O)CNC(=O)N1CCCC(N(C)CCc2ccccc2)C1 (stereo not shown)	7.93%
COc1ccc(C(CNc2ccc(C(F)(F)F)cn2)N(C)C)cc1OC (stereo not shown)	3.44%
COCCNC(=S)c1ccc(OC)cc1	2.18%
Nc1nc(-c2ccc3c(c2)CCCC3)cs1	9.84%
NC(=O)NCc1ccc(F)cc1	4.8%
Cc1cc(NC(=O)CCN2C(=O)C3C4CCC(C4)C3C2=O)c(C)cc1Br (stereo not shown)	-7.47%
CCOC(=O)c1ccc(NC(=O)C2CC(=O)N(c3ccc4c(c3)OCCO4)C2)cc1 (stereo not shown)	12.9%
CC1CCCCN1C(=O)CSc1nnc(-c2ccco2)o1 (stereo not shown)	7.55%
CC(=O)NC12CC3CC(C1)CC(C(=O)N(C)Cc1cccc(Cl)c1Cl)(C3)C2	-0.167%

Structure (SMILES)	hERG current change (%, negative = inhibition) at 1uM
O=C(N/N=C/c1ccc[nH]1)c1ccccc1[N+](=O)[O-]	11.4%
CCNc1nc(NC(C)C)nc(N(C#N)CCOc2ccccc2)n1	4.54%
CC(=O)Nc1ccc(S(=O)(=O)NC(CC(=O)NCCC2=CCCCC2)C(C)C)cc1 (stereo not shown)	14.6%
Cc1nc2c(-c3ccc(F)cc3)c(C)nn2c(N2CCOCC2)c1C	11.8%
Cc1ccc(-c2cc(C(F)F)nc(NCC3CCCO3)n2)cc1 (stereo not shown)	6.46%
COC(=O)CSc1[nH]c2ccc(F)cc2c1[N+](=O)[O-]	14.7%
COC(=O)c1ccc(CSc2nc3c(c(=O)n2-c2ccccc2)SCC3)o1	-2.1%
Cc1ccc(S(=O)(=O)NC2=NCN(C(C)C)CN2)cc1	11.5%
NC(=O)c1ccc(N2CCCCC2)c(N2C(=O)C3CC=CCC3C2=O)c1 (stereo not shown)	11.9%
COc1ccc(N2C(=O)S[C@@H]3CS(=O)(=O)C[C@@H]32)cc1	9.63%
O=C(O)COc1ccc(C(NC(=O)c2c(F)cccc2F)NC(=O)c2c(F)cccc2F)cc1	16.9%
CCN(c1ccccc1)S(=O)(=O)c1ccc(NC(=S)NC(=O)c2cccs2)cc1	10.8%
Nc1nc(SCC(=O)N2CCN(c3ccc(F)cc3)CC2)n[nH]1	6.06%
N#Cc1cn(N2CCCCC2)c(=O)[nH]c1=O	16.8%
O=C(NN1CCOCC1)c1ccc(Cl)s1	-2.44%
CC(C(=O)NC1=NCCS1)(C(F)(F)F)C(F)(F)F	-2.26%
COc1ccc(CCNC(=O)C2CCN(S(=O)(=O)c3ccc(OC)cc3)CC2)cc1	2.69%
COc1ccc(Br)cc1S(=O)(=O)Nc1ccc(Cl)cn1	6.89%
O=C(COC(=O)c1sc2cc(Cl)ccc2c1Cl)Nc1ncc(Cl)cc1Cl	14.3%
CSCCC(NC(=O)c1ccccc1Cl)C(=O)N1CCC1 (stereo not shown)	4.59%
NC(=O)COC(=O)CNC(=O)c1cc(Cl)cc([N+](=O)[O-])c1	12.5%
COc1ccc(C(=O)NCCS(=O)(=O)NC(C)c2ccccc2)cc1 (stereo not shown)	2.49%
